The test system of assay [1] is U937 cells. In words: Counter screen: cell viability without the TSQ cocktail (CelltiterGlo). The arrangement: species or system human. Particulars: Homo sapiens, U-937, cell viability by CelltiterGlo, read-out: Off-target effect (IC50 cell-based assay). The method, then: Counter screen: In parallel, all compounds were tested for their ability to affect cell viability. The same U937 cells were treated with compound in DMSO without the TSQ cocktail. This counter screen enabled evaluation of off-target effects. In this case, cell viability was measured by CelltiterGlo.
(The purpose of a counterscreen is to sort out artefacts and off-target activity.)

In assay [2] the target is T1, MLKL (full length) (Homo sapiens, UniProt Q8NB16).
T1 construct: purchased DiscoverX (KINOMEscan service); host or cells: E. coli BL21-derived (T7 phage) or HEK293
T1 sequence (Q8NB16 1-471): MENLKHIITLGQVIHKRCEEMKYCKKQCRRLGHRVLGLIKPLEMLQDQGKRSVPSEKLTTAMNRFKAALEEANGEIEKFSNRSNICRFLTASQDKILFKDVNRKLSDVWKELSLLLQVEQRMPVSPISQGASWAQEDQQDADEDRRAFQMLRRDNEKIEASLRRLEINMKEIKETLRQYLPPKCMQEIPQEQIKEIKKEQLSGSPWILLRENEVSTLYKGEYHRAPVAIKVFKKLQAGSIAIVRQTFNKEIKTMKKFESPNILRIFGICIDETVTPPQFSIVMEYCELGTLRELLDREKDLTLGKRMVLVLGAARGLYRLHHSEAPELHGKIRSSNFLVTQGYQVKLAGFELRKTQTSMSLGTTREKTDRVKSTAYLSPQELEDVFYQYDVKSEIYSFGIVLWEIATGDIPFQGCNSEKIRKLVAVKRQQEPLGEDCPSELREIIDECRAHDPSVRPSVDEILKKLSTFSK
The assay is described as follows: KINOMEscan binding assay, MLKL. The note with it: equilibrium dissociation constant, class symbols. The source says: The Hill Slope was set to −1.

For assay [3], the system named is U937 human histiocytic leukemia cell line. In words: Inhibition of TSQ induced necroptosis, 384 well plate format (CellTitre-Glo). Particulars: Homo sapiens, U-937; U937 cells, TSQ cocktail (TNF, Smac mimetic, Q-VD-OPh), CelltiterGlo; read-out: Inhibition of TSQ-induced necroptosis (IC50 cell-based assay). Here is the method:
[…] ASSAY: Screening compounds for inhibition of TSQ induced necroptosis, 384 well plate format.
Cell Line ID: U937 human histiocytic leukemia cell line.
Cell Concentration (cells/well): Final cell density is 20000 cells per well.
Cell growth medium: HT-RPMI medium+7.4% Fetal Bovine Serum (FBS). Cells are cultured in Corning 150 cm^2 tissue culture flasks with vented caps at 37° C./5% CO2.
Incubation: Plates were incubated at 37° C./5% CO2 in a humidified incubator for 48 hours following addition of compounds and death stimuli (TSQ cocktail).
Compound concentration: 36 μM starting concentration, 1:3 dilution, 10 point
DMSO final concentration (% v/v): 0.3%.
Compounds in TSQ cocktail (T: TNF; S: Smac mimetic; Q: Q-VD-OPh) and their final concentrations:
hTNF-Fc (100 ng/ml)—produced by standard procedures as shown in Bossen et al., J Biol Chem, 2006, 281(20), 13964-13971.
Compound A (500 nM)—Smac mimetic, Tetralogic and SYNthesis med chem
Q-VD-OPh (10 μM)—MP Biomedicals
The cellular assay was carried out according to the following steps: • 1. Each well was prepared by sequential addition of: • a. DMSO (control; columns 1-2 and 23-24) or compound in DMSO—addition was performed using acoustic transfer of nl volumes of stock compound to give final test concentrations of 36, 12, 4, 1.3, 0.44, 0.148, 0.049, 0.016, 0.005 and 0.002 μM. All wells were backfilled with DMSO to a final total volume in the well of 100 nl. • b. Following compound/DMSO addition in step (a), 40 μL of cell suspension (5×10^5 cells/mL) was added to provide a final cell concentration of 20,000 cells per well, and • c. Following cell addition in step (b), 10 μL of 5×TSQ cocktail (except to positive controls; columns 1 and 23) was added to each well. • 2. After 48 hours, plate was removed from the 37° C. incubator and equilibrated to room temperature for 45 minutes. • 3. 15 μL of room temperature CellTitre-Glo2™ (Promega™) was added to each well. • 4. Shook plates for 2 minutes (˜600 rpm) and incubated at room temperature for 15 minutes to allow signal to stabilise. • 5. Read luminescence readout on a plate reader. Analysis:
Percent viability was calculated for each compound according to equation (2):
[formula] • wherein • RawData is the readout of any cell containing a compound of the invention • TA is the total activity provided by the luminescence readout from DMSO only wells (columns 2 and 24)=100% viability • NSA is the non-specific activity provided by DMSO+TSQ wells (columns 1 and 23)=0% viability
Curve fitting: 10-point titration curves are fitted with the 4-parameter logistic nonlinear regression model and the IC50 reported is the inflection point of the curve.
Analysis: Data was loaded into Dotmatics™ and visualised using the Tibco® Spotfire™ software. 10 points titration curves were fitted with the 4-parameter logistic nonlinear regression model and the IC50 reported reflect the inflection point of the curve for curve fitting.
Assay involving the TSQ cocktail (T: TNF; S: Smac mimetic; Q: Q-VD-OPh): TSQ treatment ensures that cells specifically undergo necroptotic cell death. TNF activates the TNF receptor, Smac mimetic directs the signal away from proinflammatory signaling and toward the RIP1/RIP3-mediated cell death pathways, and Q-VD-OPh ensures that the apoptotic response is blocked leaving only the programmed necrosis response. The compounds' activity (solution in DMSO) tested in this TSQ-induced assay was evaluated by determining the number of viable cells in culture by measuring the amount of ATP present as measured by CelltiterGlo.
For orientation: In ATP-based viability assays light output follows the ATP content of the culture.

Assay [4] addresses T2, RIP1 (Homo sapiens, UniProt Q13546).
T2 construct: purchased DiscoverX (KINOMEscan service); host or cells: E. coli BL21-derived (T7 phage) or HEK293
T2 sequence (Q13546 1-671): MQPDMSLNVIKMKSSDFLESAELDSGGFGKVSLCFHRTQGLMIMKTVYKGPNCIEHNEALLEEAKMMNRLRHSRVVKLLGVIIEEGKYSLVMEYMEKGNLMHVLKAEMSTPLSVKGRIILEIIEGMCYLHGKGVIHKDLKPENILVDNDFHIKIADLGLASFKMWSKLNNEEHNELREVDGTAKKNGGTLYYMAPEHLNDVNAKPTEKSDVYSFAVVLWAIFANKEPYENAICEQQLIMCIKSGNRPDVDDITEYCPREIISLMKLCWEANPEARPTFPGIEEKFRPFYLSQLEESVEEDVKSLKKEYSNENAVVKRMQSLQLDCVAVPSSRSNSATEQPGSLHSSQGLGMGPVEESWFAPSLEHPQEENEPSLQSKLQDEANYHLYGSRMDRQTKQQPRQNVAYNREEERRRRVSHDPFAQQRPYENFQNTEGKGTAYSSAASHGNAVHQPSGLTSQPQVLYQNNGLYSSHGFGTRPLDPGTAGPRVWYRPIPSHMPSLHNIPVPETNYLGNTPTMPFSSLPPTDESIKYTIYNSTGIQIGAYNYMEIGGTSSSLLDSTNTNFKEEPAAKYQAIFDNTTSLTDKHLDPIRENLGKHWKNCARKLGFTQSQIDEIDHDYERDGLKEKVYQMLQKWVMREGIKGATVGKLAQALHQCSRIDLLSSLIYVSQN
The assay is described as follows: KINOMEscan binding assay, RIP1. Particulars: equilibrium dissociation constant, class symbols.

As usually defined, the IC50 is the concentration at which inhibition is half-maximal. As usually defined, the Kd is the constant that tells how readily two partners part at equilibrium.

On to `Cc1cnc(Nc2[nH]nc(-c3ccc(NS(=O)(=O)CC(F)(F)F)c(OCc4ccc(F)cc4)c3)c2C(N)=O)cn1` [Compound 163, 3-(3-((4-fluorobenzyl)oxy)-4-((2,2,2-trifluoroethyl)sulfonamido)phenyl)-5-((5-methylpyrazin-2-yl)amino)-1H-pyrazole-4-carboxamide], for which the IC50 in assay [1] was over 30 µM; in assay [3], 0.01 to 1 µM. Moreover, the dissociation constant Kd was under 0.01 µM in assay [2] and over 30 µM in assay [4].

As to `CCS(=O)(=O)Nc1ccc(-c2n[nH]c(Nc3cnccn3)c2C(N)=O)cc1OCc1ccc(Cl)c(F)c1` [Compound 166, 3-(3-((4-chloro-3-fluorobenzyl)oxy)-4-(ethylsulfonamido)phenyl)-5-(pyrazin-2-ylamino)-1H-pyrazole-4-carboxamide], the IC50 in assay [1] was over 30 µM; in assay [3], 0.01 to 1 µM. In addition, the figures for the dissociation constant (Kd) in assay [2] and in assay [4] were under 0.01 µM and over 30 µM, respectively.

On to `NC(=O)c1c(-c2ccc(NS(=O)(=O)CC(F)(F)F)c(OCc3ccc(F)cc3)c2)n[nH]c1Nc1cnccn1` [Compound 170, 3-(3-((4-fluorobenzyl)oxy)-4-((2,2,2-trifluoroethyl)sulfonamido)phenyl)-5-(pyrazin-2-ylamino)-1H-pyrazole-4-carboxamide], for which the values for the half-maximal inhibitory concentration (IC50) in assay [1] and in assay [3] were over 30 µM and 0.01 to 1 µM, respectively. The equilibrium dissociation constant (Kd) in assay [2] was under 0.01 µM; in assay [4], over 30 µM.

As to `CCS(=O)(=O)Nc1ccc(-c2n[nH]c(Nc3cnccn3)c2C(N)=O)c(OCc2ccc(Cl)cc2)c1` [Compound 198, 3-(2-((4-chlorobenzyl)oxy)-4-(ethylsulfonamido)phenyl)-5-(pyrazin-2-ylamino)-1H-pyrazole-4-carboxamide], the half-maximal inhibitory concentration (IC50) in assay [1] is over 30 µM; in assay [3], 1 to 30 µM. The dissociation constant (Kd) in assay [2] is under 0.01 µM; in assay [4], over 30 µM.

Regarding `NC(=O)c1c(-c2ccc(NS(=O)(=O)C(F)F)c(OCc3ccc(F)cc3)c2)n[nH]c1Nc1cnccn1` [Compound 202, 3-(4-((difluoromethyl)sulfonamido)-3-((4-fluorobenzyl)oxy)phenyl)-5-(pyrazin-2-ylamino)-1H-pyrazole-4-carboxamide], the results for the IC50 in assay [1] and in assay [3] were over 30 µM and 0.01 to 1 µM, respectively. For the same compound, the dissociation constant (Kd) in assay [2] was under 0.01 µM; in assay [4], over 30 µM.

With `C[C@H](Oc1cc(-c2n[nH]c(Nc3cnccn3)c2C(N)=O)ccc1NS(=O)(=O)C(F)F)c1ccc(F)cc1` [Compound 223, 3-[4-(difluoromethanesulfonamido)-3-[(1S)-1-(4-fluorophenyl)ethoxy]phenyl]-5-[(pyrazin-2-yl)amino]-1H-pyrazole-4-carboxamide], the results for the half-inhibitory concentration (IC50) in assay [1] and in assay [3] were over 30 µM and under 0.01 µM, respectively. Further, the Kd in assay [2] is under 0.01 µM; in assay [4], over 30 µM.

Consider `NC(=O)c1c(-c2ccc(NS(=O)(=O)CC(F)(F)F)c(OCc3ccc(Cl)cc3)c2)n[nH]c1Nc1cnc(C(F)(F)F)cn1` [Compound 234, 3-{3-[(4-chlorophenyl)methoxy]-4-(2,2,2-trifluoroethanesulfonamido)phenyl}-5-{[5-(trifluoromethyl)pyrazin-2-yl]amino}-1H-pyrazole-4-carboxamide], for which the IC50 in assay [1] fell in the range of 1 to 30 µM; in assay [3], 0.01 to 1 µM. For the same compound, the Kd in assay [2] is under 0.01 µM; in assay [4], over 30 µM.

On to `Cc1cnc(Nc2[nH]nc(-c3ccc(NS(=O)(=O)C(F)F)c(O[C@@H](C)c4ccc(F)cc4)c3)c2C(N)=O)cn1` [Compound 245, 3-[4-(difluoromethanesulfonamido)-3-[(1S)-1-(4-fluorophenyl)ethoxy]phenyl]-5-[(5-methylpyrazin-2-yl)amino]-1H-pyrazole-4-carboxamide], for which the IC50 was over 30 µM in assay [1] and under 0.01 µM in assay [3]. The dissociation constant Kd is under 0.01 µM in assay [2] and over 30 µM in assay [4].

For `C[C@H](Oc1cc(-c2n[nH]c(Nc3cnccn3)c2C(N)=O)ccc1NS(=O)(=O)CC(F)(F)F)c1ccc(Cl)cc1` [Compound 259, 3-{3-[(1S)-1-(4-chlorophenyl)ethoxy]-4-(2,2,2-trifluoroethane-sulfonamido)phenyl}-5-[(pyrazin-2-yl)amino]-1H-pyrazole-4-carboxamide], the 50% inhibitory concentration (IC50) in assay [1] and in assay [3] was over 30 µM each time. Besides, the Kd in assay [2] was under 0.01 µM; in assay [4], over 30 µM.

On to `Cc1cnc(Nc2[nH]nc(-c3ccc(NS(=O)(=O)CC(F)(F)F)c(O[C@@H](C)c4ccc(F)cc4)c3)c2C(N)=O)cn1` [Compound 264, 3-{3-[(1S)-1-(4-fluorophenyl)ethoxy]-4-(2,2,2-trifluoroethanesulfonamido)phenyl}-5-[(5-methylpyrazin-2-yl)amino]-1H-pyrazole-4-carboxamide], for which the half-maximal inhibitory concentration (IC50) in assay [1] was over 30 µM; in assay [3], under 0.01 µM. Besides, the dissociation constant (Kd) in assay [2] was under 0.01 µM; in assay [4], over 30 µM.

Take `C[C@H](Oc1cc(-c2n[nH]c(Nc3cc(C(C)(C)C)on3)c2C(N)=O)ccc1NS(=O)(=O)C(F)F)c1ccc(F)cc1` [Compound 282, (S)-5-((5-(tert-butyl)isoxazol-3-yl)amino)-3-(4-((difluoromethyl)sulfonamido)-3-(1-(4-fluorophenyl)ethoxy)phenyl)-1H-pyrazole-4-carboxamide]: the half-maximal inhibitory concentration (IC50) in assay [1] was 1 to 30 µM; in assay [3], under 0.01 µM. Also, the dissociation constant (Kd) in assay [2] was under 0.01 µM; in assay [4], over 30 µM.

(Values after patent US12583836B2 (Anaxis Pharma Pty Ltd, priority 2020, dated 2026).)
